Test results reported in the supplement of paper PMC12067093, “Discovery and optimisation of a covalent ligand for TRIM25 and its application to targeted protein ubiquitination” (Chemical Science, 2025).
The full data set covers some 21,000 targets. This sample favours those with the largest changes.

Compound: CC1Cc2ccccc2N1C(=O)C1CCCN(C1)C(=O)CCl (mixture of isomers) [TRIM25 ligand 11 (diastereomer mixture)]
Assay: probe-labelled cysteine peptide fold change vs DMSO (competition) (log2 fold change); higher = less target engagement (more negative = stronger competition)
Details: THP-1, incubation time: 4 h
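Also: competitive chemoproteomic profiling in live THP-1 cells with an iodoacetamide desthiobiotin (IA-DTB) probe, comparing probe-labelled peptide intensities in compound-treated cells against DMSO-treated controls.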

Chain of UniProt Q5VV52 (Q5VV52 whole entry, looked up): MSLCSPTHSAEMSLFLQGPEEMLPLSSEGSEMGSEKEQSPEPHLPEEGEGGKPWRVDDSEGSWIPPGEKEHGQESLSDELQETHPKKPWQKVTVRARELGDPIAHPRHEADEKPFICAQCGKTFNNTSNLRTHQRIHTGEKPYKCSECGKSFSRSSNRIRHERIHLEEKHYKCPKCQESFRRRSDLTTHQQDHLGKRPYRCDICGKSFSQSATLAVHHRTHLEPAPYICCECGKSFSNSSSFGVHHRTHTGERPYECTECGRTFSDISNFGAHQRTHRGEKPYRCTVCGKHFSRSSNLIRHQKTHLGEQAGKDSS
Chain of UniProt Q8IWR0 (Q8IWR0 whole entry, looked up): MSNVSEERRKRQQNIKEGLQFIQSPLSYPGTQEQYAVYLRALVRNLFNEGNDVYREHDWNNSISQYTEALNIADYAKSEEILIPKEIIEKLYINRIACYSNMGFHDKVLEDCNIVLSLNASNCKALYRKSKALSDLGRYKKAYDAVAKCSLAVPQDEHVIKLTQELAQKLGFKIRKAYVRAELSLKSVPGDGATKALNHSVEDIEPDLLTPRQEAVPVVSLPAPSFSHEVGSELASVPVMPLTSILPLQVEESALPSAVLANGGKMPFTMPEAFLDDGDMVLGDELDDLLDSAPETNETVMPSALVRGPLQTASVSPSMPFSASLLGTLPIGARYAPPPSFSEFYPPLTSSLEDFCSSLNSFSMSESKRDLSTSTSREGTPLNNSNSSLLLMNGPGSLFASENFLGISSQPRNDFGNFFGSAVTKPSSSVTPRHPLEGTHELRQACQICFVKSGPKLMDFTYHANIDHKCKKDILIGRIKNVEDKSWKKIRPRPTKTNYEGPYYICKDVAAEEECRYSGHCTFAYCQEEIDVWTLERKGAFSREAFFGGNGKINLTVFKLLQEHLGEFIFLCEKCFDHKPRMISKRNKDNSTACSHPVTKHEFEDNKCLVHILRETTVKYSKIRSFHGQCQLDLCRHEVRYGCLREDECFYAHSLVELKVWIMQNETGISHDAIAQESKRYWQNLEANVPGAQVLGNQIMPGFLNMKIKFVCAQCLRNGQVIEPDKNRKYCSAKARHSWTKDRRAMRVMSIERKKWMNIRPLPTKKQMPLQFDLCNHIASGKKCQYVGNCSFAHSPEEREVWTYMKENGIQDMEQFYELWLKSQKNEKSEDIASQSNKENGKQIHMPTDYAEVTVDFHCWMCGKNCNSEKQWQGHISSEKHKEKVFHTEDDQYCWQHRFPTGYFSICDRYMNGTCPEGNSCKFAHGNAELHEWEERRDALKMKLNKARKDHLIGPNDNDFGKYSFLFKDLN
Chain of UniProt Q6PJT7 (Q6PJT7 whole entry, looked up): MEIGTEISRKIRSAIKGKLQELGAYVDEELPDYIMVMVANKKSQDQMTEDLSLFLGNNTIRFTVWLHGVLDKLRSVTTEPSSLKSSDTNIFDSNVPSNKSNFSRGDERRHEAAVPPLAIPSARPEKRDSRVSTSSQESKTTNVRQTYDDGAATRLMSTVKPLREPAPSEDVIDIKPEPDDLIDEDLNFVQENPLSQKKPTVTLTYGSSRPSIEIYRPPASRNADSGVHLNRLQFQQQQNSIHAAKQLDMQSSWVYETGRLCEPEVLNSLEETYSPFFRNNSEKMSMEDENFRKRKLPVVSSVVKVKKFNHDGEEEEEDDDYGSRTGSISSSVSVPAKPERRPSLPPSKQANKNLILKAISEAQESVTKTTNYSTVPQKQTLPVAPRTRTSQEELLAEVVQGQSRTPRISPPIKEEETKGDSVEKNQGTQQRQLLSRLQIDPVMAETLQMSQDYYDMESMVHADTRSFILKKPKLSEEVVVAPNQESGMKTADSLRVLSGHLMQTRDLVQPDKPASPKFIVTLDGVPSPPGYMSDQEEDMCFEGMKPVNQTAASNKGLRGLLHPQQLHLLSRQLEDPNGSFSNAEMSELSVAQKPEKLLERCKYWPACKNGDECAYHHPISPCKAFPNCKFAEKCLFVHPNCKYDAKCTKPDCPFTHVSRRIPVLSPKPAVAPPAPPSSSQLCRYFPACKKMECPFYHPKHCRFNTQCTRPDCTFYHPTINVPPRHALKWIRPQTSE
Chain of UniProt P63104 (P63104 whole entry, looked up): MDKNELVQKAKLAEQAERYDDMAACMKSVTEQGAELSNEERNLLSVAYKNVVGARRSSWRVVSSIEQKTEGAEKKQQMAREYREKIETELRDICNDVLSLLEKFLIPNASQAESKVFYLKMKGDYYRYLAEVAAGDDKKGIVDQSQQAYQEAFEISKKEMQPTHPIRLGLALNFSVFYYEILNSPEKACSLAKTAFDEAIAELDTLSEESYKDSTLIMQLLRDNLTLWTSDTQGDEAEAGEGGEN
Chain of UniProt Q6FIF0 (Q6FIF0 whole entry, looked up): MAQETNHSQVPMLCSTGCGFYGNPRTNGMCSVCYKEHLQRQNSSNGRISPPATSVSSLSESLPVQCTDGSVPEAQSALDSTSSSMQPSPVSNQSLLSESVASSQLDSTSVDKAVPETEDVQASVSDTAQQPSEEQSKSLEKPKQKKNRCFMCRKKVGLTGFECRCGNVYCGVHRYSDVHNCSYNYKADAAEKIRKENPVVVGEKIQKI
Chain of UniProt Q9NQW7 (Q9NQW7 whole entry, looked up): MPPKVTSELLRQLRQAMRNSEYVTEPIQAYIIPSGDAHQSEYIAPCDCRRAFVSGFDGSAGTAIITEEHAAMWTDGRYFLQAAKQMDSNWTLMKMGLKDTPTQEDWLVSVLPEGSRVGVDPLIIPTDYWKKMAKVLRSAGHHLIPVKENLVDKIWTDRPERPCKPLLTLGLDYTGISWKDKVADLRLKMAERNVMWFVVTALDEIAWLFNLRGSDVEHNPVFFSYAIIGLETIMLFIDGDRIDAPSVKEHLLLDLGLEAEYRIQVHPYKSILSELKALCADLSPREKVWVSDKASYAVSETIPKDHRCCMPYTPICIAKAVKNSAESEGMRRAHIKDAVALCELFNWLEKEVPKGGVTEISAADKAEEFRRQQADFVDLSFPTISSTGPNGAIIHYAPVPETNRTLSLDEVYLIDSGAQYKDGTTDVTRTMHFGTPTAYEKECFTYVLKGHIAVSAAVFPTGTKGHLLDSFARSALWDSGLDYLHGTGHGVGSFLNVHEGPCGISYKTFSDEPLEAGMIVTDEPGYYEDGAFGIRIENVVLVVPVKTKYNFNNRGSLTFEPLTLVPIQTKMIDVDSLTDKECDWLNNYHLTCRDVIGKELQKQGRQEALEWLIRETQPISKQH
Chain of UniProt Q14202 (Q14202 whole entry, looked up): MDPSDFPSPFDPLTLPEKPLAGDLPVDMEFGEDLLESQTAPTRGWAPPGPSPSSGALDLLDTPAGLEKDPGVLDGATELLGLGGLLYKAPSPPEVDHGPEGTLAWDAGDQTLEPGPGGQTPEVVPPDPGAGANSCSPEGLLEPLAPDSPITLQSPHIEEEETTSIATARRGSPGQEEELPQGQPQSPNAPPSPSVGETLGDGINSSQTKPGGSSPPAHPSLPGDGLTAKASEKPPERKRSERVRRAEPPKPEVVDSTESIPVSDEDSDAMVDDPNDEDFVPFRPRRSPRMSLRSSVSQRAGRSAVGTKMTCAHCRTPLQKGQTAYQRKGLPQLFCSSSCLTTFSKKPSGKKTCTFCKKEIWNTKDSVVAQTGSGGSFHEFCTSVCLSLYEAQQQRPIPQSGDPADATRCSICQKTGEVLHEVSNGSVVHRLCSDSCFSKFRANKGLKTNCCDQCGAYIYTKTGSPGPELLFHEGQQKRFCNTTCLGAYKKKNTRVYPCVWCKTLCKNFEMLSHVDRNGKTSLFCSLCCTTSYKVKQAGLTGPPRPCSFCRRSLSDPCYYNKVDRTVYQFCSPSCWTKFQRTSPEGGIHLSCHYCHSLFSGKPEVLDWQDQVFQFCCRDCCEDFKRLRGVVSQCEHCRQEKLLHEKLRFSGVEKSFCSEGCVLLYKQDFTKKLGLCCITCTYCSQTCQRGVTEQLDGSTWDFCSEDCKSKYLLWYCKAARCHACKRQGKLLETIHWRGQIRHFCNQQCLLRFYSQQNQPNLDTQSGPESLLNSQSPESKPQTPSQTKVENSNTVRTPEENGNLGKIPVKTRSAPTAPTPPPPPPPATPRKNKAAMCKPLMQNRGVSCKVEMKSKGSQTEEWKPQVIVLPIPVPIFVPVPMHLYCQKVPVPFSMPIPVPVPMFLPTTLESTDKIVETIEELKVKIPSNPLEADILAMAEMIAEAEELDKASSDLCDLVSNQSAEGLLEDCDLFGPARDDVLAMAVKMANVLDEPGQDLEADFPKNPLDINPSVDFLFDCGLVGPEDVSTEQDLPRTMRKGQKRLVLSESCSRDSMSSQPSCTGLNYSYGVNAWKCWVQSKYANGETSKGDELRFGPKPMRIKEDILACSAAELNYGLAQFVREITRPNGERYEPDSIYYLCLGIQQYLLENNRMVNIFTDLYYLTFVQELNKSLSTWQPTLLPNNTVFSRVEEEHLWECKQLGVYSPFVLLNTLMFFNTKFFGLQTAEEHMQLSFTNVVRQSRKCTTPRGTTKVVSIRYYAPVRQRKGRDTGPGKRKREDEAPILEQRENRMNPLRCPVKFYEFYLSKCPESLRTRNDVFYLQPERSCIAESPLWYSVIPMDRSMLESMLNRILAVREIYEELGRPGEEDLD
Chain of UniProt O75844 (O75844 whole entry): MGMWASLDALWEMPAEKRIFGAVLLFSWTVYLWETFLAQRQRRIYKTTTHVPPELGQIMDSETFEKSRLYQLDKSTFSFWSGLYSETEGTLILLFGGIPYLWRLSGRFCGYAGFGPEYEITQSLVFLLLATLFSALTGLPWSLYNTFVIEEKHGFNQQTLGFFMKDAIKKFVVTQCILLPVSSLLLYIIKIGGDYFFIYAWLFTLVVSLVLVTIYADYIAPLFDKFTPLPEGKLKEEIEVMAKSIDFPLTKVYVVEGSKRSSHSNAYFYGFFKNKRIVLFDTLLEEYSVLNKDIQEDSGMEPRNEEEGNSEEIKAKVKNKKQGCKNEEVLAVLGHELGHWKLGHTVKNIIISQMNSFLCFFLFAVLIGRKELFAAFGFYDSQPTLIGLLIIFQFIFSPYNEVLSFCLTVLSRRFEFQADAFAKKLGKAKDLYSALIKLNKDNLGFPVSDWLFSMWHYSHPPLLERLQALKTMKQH

Target	probe-labelled cysteine peptide fold change (10 µM)	probe-labelled cysteine peptide fold change (50 µM)
ZNF644_Q9H582_152_GSVSLTTGQPVDQPTTESCSTLK (UniProt Q9H582)	-0.0066	-0.245
ZNF691_Q5VV52_260_THTGERPYECTECGR (UniProt Q5VV52)	0.782	0.661
ZFYVE16_Q7Z3T8_1174_LDDLSLPSNPFLCGILIQK (UniProt Q7Z3T8)	0.467	–
ZFYVE1_Q9HBF4_302_CGLDVPLSTLGPAVIIFHETVHTQLLGSDHPSEVPEK (UniProt Q9HBF4)	0.26	-0.342
ZNF106_Q9H2Y7_432_QCPTAEKPEQEHTPNK (UniProt Q9H2Y7)	-0.102	-0.282
XPNPEP1_Q9NQW7_592_ECDWLNNYHLTCR (UniProt Q9NQW7)	-0.0936	-0.152
XRN2_Q9H0D6_266_PCGLCNQFGHEVK (UniProt Q9H0D6)	-0.0128	0.0752
ZC3H7A_Q8IWR0_515_DVAAEEECR (UniProt Q8IWR0)	0.0596	0.0208
ZMYM3_Q14202_314_MTCAHCR (UniProt Q14202)	-0.0785	-0.168
ZCCHC2_Q9C0B9_305_GGPEDAEVEVEPCK (UniProt Q9C0B9)	-0.207	-0.146
ZFAND2A_Q8N6M9_84_GQIPDVVVGDHIDRDCDSHPGK (UniProt Q8N6M9)	0.135	0.65
XPO5_Q9HAV4_221_AQANCR (UniProt Q9HAV4)	0.59	0.537
ZC3HAV1_Q7Z2W4_7+8_ADPEVCCFITK (UniProt Q7Z2W4)	-0.269	-0.126
ZNF638_Q14966_428+431_IFPHLCSLCNVECSHLK (UniProt Q14966)	0.287	-0.0116
ZNF292_O60281_982_QENSTVEGSGEALVTDLHTPVEDTCNDLCHPGFQER (UniProt O60281)	-0.201	-0.183
ZNF83_P51522_375_CDECDK<|>ZNF678_Q99676_183_CDECDK (UniProt Q99676+P51522)	0.445	0.726
ZC3H7B_Q9UGR2_940_DMLLCPR (UniProt Q9UGR2)	-0.218	-0.591
XPO5_Q9HAV4_706_SCDPGLEDPCGLNR (UniProt Q9HAV4)	-0.0197	0.192
ZFR_Q96KR1_812_NVNLVLLCSEK (UniProt Q96KR1)	0.027	0.201

Target	probe-labelled cysteine peptide fold change (10 µM)	probe-labelled cysteine peptide fold change (50 µM)
ZFR_Q96KR1_5_MIPICPVVSFTYVPSR (UniProt Q96KR1)	0.0256	0.58
ZFP91_Q96JP5_313_CEMEGCGTVLAHPR (UniProt Q96JP5)	0.134	0.12
ZNF512_Q96ME7_445_CLLCQK (UniProt Q96ME7)	-0.0211	0.165
ZNF274_Q96GC6_565+568_VHSGERPFECQECGR (UniProt Q96GC6)	-0.324	-0.142
ZNF622_Q969S3_6+9_ATYTCITCR (UniProt Q969S3)	-0.688	-0.3
ZC3H14_Q6PJT7_622_NGDECAYHHPISPCK (UniProt Q6PJT7)	0.00595	-0.0399
YWHAZ_P63104_25_LAEQAERYDDMAACMK (UniProt P63104)	-0.454	-0.365
ZSCAN20_P17040_399_SSHPPGTCPFYEELEALVR (UniProt P17040)	0.126	-0.102
ZDHHC5_Q9C0B5_245_VLCSSPAPR (UniProt Q9C0B5)	0.109	0.121
ZC3HAV1_Q7Z2W4_78_YCQRPCDNLHLCK (UniProt Q7Z2W4)	0.00707	0.00938
ZNF512B_Q96KM6_353_AADSLDTCPIPPK (UniProt Q96KM6)	-0.0189	-0.139
ZC3HAV1_Q7Z2W4_7_ADPEVCCFITK (UniProt Q7Z2W4)	0.0667	0.239
ZPR1_O75312_288+291_EVIIMATNCENCGHR (UniProt O75312)	0.0324	-0.142
ZC3HAV1_Q7Z2W4_168_QQICNQQPPCSR (UniProt Q7Z2W4)	-0.111	-0.15
ZMPSTE24_O75844_324_QGCKNEEVLAVLGHELGHWK (UniProt O75844)	-0.56	-0.365
XPO5_Q9HAV4_419_TDSPSCEYSR (UniProt Q9HAV4)	0.235	0.582
ZFAND6_Q6FIF0_170_CGNVYCGVHR (UniProt Q6FIF0)	0.11	0.139
ZMYM4_Q5VZL5_1499_SCVPNSPMWYSTFPIDPGTLDTMLTR (UniProt Q5VZL5)	-0.57	-0.69
